Test results as given in the supplement of paper PMC3334620.
The full ranking holds about 33,000 sequences; the median of “E-score (-0.5 to 0.5)” is about -0.012, and the highest 2% start at about 0.27. The list shows a part of the results.

target: T1, Vhr1 (UniProt P40522); assay: PBM E-score (8-mer binding enrichment) (E-score (-0.5 to 0.5)); higher = stronger / more preferred TF binding; most listed sequences are background and not binding sites; settings: protein concentration: 200 nM; construct: GST-full length
T1 sequence: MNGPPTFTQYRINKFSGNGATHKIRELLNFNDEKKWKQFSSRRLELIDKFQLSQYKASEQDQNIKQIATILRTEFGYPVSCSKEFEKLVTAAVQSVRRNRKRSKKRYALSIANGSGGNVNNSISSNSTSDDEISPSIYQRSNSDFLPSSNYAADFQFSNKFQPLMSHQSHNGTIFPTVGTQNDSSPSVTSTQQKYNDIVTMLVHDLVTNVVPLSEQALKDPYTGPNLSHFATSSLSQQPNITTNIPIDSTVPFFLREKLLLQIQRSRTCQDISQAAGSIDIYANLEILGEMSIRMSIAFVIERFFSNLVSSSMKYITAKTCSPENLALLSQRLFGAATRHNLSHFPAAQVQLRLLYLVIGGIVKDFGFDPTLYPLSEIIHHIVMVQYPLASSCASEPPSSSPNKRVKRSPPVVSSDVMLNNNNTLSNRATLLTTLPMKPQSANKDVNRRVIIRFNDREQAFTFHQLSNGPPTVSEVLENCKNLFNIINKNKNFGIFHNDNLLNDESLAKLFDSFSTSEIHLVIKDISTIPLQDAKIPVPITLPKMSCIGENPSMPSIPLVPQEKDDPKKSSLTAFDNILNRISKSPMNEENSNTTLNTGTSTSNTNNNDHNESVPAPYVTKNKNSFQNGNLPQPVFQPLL
How it was run: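 Yeast transcription factors carrying a GST tag, as full-length proteins or DNA-binding domains, were produced by PURExpress in vitro transcription/translation. About 100-200 nM protein was applied to universal all-10-mer Agilent arrays, double-stranded by primer extension on fresh or once-stripped slides. Bound protein was detected with fluorescent anti-GST, and scans were normalised with masliner. The Universal PBM Analysis Suite gave each ungapped eight-base word, pooled with its reverse complement, an E-score, a modified Wilcoxon-Mann-Whitney statistic.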

Sequence | PBM E-score
GTCCCATA | -0.161
CGGACACC | -0.00979
AGCGGAGC | -0.102
GGGCGTTA | -0.0562
GTCCGACA | 0.0103
TAGTCTGA | 0.218
CGGATCAA | -0.0846
CCGCCGCA | -0.04
CTCTCATC | -0.131
CCCGGATA | 0.136
CGTCCACA | -0.108
GTATGCTA | -0.044
CCGCTAGG | -0.2
CACCACAA | 0.0415
CGGGCACG | -0.0348
AACCTTCT | -0.317
GTAATATA | 0.0926
ACGTCGCA | -0.128
ACTGGGCA | -0.174
CCATCAGG | 0.113
ATATAAGG | -0.0132
TATCACGA | 0.0244
GTAAGAAC | -0.0813
CTCGTAAC | -0.0519
AATTTCAA | -0.288

Sequence | PBM E-score
ACAAACCT | -0.0456
AGAGATAA | -0.203
CACACACG | 0.272
ATCGGCTG | 0.0723
CGTGGACC | -0.19
AGTTTTTC | -0.152
AACGCAGA | -0.0416
CGTTGCCA | -0.221
GGGCTGAA | -0.0178
ATCGATTC | 0.156
GCGCAATA | 0.0102
ATCAGGGG | 0.0603
AGAAGGGC | -0.16
GGCACATA | 0.13
GTGTCCCA | 0.169
CAGCGAAC | -0.0303
GGAGGCAA | -0.158
AGGTCGAG | -0.0182
AGTTTGGA | 0.121
AAAATATA | 0.0195
ATGCAAGG | -0.146
CCCTTTGA | -0.0818
GCCGCACA | -0.00763
ATATAACC | 0.175
AAACCTAG | -0.0174

Sequence | PBM E-score
GCAGCCCA | 0.0376
TAGGGACA | -0.0417
GGAAGAAA | -0.136
AAGAAGGG | -0.0454
GCCAGGAC | -0.00785
CTGTGGCC | -0.111
AGCTGTTC | -0.136
AAACAGGT | -0.108
CAATTAAG | -0.124
GACCGTGA | 0.091
AAAGCAAA | -0.208
CACCCATC | 0.212
CTATAAAG | -0.133
GATTTGCC | -0.0285
TCAACTCA | 0.0654
GAGCCAAA | -0.0747
AATCAGGT | 0.268
AAGTTCAA | -0.154
AATCTCCC | 0.149
AGCTACCA | 0.126
TAATGATA | 0.224
GGTGCCAC | -0.254
AAAATGAT | 0.123
CTTTCCCA | -0.115
ACGCTCTA | -0.156

Sequence | PBM E-score
CGCTGCGA | 0.045
AGCGTAAC | -0.242
GACGAGTC | 0.276
CCGTTACG | -0.0486
AAAGTTGG | 0.0279
AATCTGCT | -0.214
AGGTTGCC | 0.0677
AGGCACCT | -0.299
CCTGGCCC | -0.0376
CTCAATCA | 0.33
ACGTAACG | -0.0436
CTAAGTAA | -0.184
AGCGCAAG | -0.0521
CTCCGTCA | -0.0351
AGTGGGTC | 0.168
AATACGAA | -0.107
CATTTAGC | -0.12
GTAGAAGA | -0.118
CCGCCCTA | -0.029
GAAGAGAC | -0.0959
AACAGCTA | 0.00268
CACAACCC | -0.00714
AGCGTGCG | 0.0988
CCATATAA | -0.0032
ACGCCGAT | -0.0892

Sequence | PBM E-score
AGCCAACT | -0.0285
GAGCGTAA | -0.0505
GGAAGACC | -0.0913
AACTGATT | -0.0115
CACATAAG | 0.0384
GCAAAGGC | -0.166
CACCGGGA | -0.0444
AGTATACT | -0.0127
ATTAGAAA | -0.212
AAATGTGC | 0.0346
TGCGACCA | 0.165
GGCTCCGA | 0.116
CAGGGAAC | -0.0587
AAGAACCA | -0.0565
AATACGCT | -0.0796
AATTCAGT | 0.0586
AGCCAAAG | -0.142
CGTGCAGA | -0.0877
CCGTGTGA | 0.127
TCTCGGAA | 0.0222
AATTAAGG | -0.247
CATTCGAG | -0.0634
AACGCAAC | 0.16
ACTAATAT | 0.255
ATCGGTCG | 0.0274

Sequence | PBM E-score
GGTCTACA | 0.0178
AAAGCTCG | -0.18
GTAAATGA | 0.106
ATTCGGAC | 0.156
GGCACCAA | 0.0843
GATGTAGA | 0.0103
ACATGAAA | -0.119
CATATGGC | 0.124
CAGATGGC | 0.0162
GGTCACTA | -0.0218
GTTGGTGA | 0.191
ATTTGAGG | -0.161
AATTACAT | 0.047
CGGGACAA | -0.198
CATTGCAG | 0.161
CGACGGTA | -0.0689
AGTTGACC | 0.103
CCAGAGAC | 0.02
GATTTCTA | -0.0567
GCTAACCC | -0.0161
CCCAGCAA | -0.0281
ATAGCTAG | -0.0312
CGAGAGGA | -0.0532
GTCAAGGA | -0.0632
CAACGCTA | -0.125

Sequence | PBM E-score
CTTTGGGC | -0.0373
CGCAACCA | 0.176
ACGAATGG | 0.0938
AATGCGCT | -0.104
GTCGATAA | -0.0853
AGATGGAC | -0.0243
AAAGAAGT | -0.149
ACTGAGCA | 0.00801
CAACTTGA | 0.0256
ATGGGGGA | -0.145
GACTCATC | 0.452
CAGGTGCC | -0.0882
ACGCACGG | -0.0194
ATTCGGTA | -0.172
AAACCTAA | -0.0619
ACAGGAAG | -0.0557
GAAGAACA | -0.00385
GAAGATTA | 0.123
AACGAATT | -0.114
TCATCACA | 0.123
ACACAGCT | 0.127
TAGGTGCA | -0.0582
